# Patent publication US5656630A, “Method of combating fungus” (American Cyanamid Company, priority 1993, dated 1997)
# Test system: tomato plants
# Settings: in vivo
# Description: Consequently, if pure Z-isomer is applied in conditions which substantially exclude sunlight, lower amounts of Z-isomer are required than of the E/Z mixture to achieve the same fungicidal effect and the effect is achieved quicker. This is clearly advantageous from both an economic and ecological point of view.
smiles,measurement,value
"COc1ccc(/C(=C\C(=O)N2CCOCC2)c2ccc(Cl)cc2)cc1OC [Z-isomer, Z-isomer of 4-[3-(4-chlorophenyl)-3-(3,4-dimethoxyphenyl)acryloyl]morpholine]",absorption by the roots and translocation into the leaves,much better absorbed by the roots and translocated into the leaves than the E-isomer
same,concentration in the leaves compared with concentration in the solution applied,much higher than the concentration of Z-isomer in the solution applied to the plant
